The labels stand for the following.
B1: ZNF691, Q5VV52 (protein)
chain: MSLCSPTHSAEMSLFLQGPEEMLPLSSEGSEMGSEKEQSPEPHLPEEGEGGKPWRVDDSEGSWIPPGEKEHGQESLSDELQETHPKKPWQKVTVRARELGDPIAHPRHEADEKPFICAQCGKTFNNTSNLRTHQRIHTGEKPYKCSECGKSFSRSSNRIRHERIHLEEKHYKCPKCQESFRRRSDLTTHQQDHLGKRPYRCDICGKSFSQSATLAVHHRTHLEPAPYICCECGKSFSNSSSFGVHHRTHTGERPYECTECGRTFSDISNFGAHQRTHRGEKPYRCTVCGKHFSRSSNLIRHQKTHLGEQAGKDSS
B2: GLI4, P10075 (protein)
chain: MAALGDIQESPSVPSPVSLSSPGTPGTQHHEPQLHLHGHQHGSPGSSPKVLSQPSDLDLQDVEEVEIGRDTFWPDSEPKPEQAPRSPGSQAPDEGAGGALRSLLRSLPRRARCSAGFGPESSAERPAGQPPGAVPCAQPRGAWRVTLVQQAAAGPEGAPERAAELGVNFGRSRQGSARGAKPHRCEACGKSFKYNSLLLKHQRIHTGEKPYACHECGKRFRGWSGFIQHHRIHTGEKPYECGQCGRAFSHSSHFTQHLRIHNGEKPYKCGECGQAFSQSSNLVRHQRLHTGEKPYACSQCGKAFIWSSVLIEHQRIHTGEKPYECSDCGKAFRGRSHFFRHLRTHTGEKPFACGACGKAFGQSSQLIQHQRVHYRE
B3: NPAS1, Q99742 (protein)
chain: MAAPYPGSGGGSEVKCVGGRGASVPWDFLPGLMVKAPSGPCLQAQRKEKSRNAARSRRGKENLEFFELAKLLPLPGAISSQLDKASIVRLSVTYLRLRRFAALGAPPWGLRAAGPPAGLAPGRRGPAALVSEVFEQHLGGHILQSLDGFVFALNQEGKFLYISETVSIYLGLSQVEMTGSSVFDYIHPGDHSEVLEQLGLRTPTPGPPTPPSVSSSSSSSSSLADTPEIEASLTKVPPSSLVQERSFFVRMKSTLTKRGLHVKASGYKVIHVTGRLRAHALGLVALGHTLPPAPLAELPLHGHMIVFRLSLGLTILACESRVSDHMDLGPSELVGRSCYQFVHGQDATRIRQSHVDLLDKGQVMTGYYRWLQRAGGFVWLQSVATVAGSGKSPGEHHVLWVSHVLSQAEGGQTPLDAFQLPASVACEEASSPGPEPTEPEPPTEGKQAAPAENEAPQTQGKRIKVEPGPRETKGSEDSGDEDPSSHPATPRPEFTSVIRAGVLKQDPVRPWGLAPPGDPPPTLLHAGFLPPVVRGLCTPGTIRYGPAELGLVYPHLQRLGPGPALPEAFYPPLGLPYPGPAGTRLPRKGD
B4: TBR1, Q16650 (protein)
chain: MQLEHCLSPSIMLSKKFLNVSSSYPHSGGSELVLHDHPIISTTDNLERSSPLKKITRGMTNQSDTDNFPDSKDSPGDVQRSKLSPVLDGVSELRHSFDGSAADRYLLSQSSQPQSAATAPSAMFPYPGQHGPAHPAFSIGSPSRYMAHHPVITNGAYNSLLSNSSPQGYPTAGYPYPQQYGHSYQGAPFYQFSSTQPGLVPGKAQVYLCNRPLWLKFHRHQTEMIITKQGRRMFPFLSFNISGLDPTAHYNIFVDVILADPNHWRFQGGKWVPCGKADTNVQGNRVYMHPDSPNTGAHWMRQEISFGKLKLTNNKGASNNNGQMVVLQSLHKYQPRLHVVEVNEDGTEDTSQPGRVQTFTFPETQFIAVTAYQNTDITQLKIDHNPFAKGFRDNYDTIYTGCDMDRLTPSPNDSPRSQIVPGARYAMAGSFLQDQFVSNYAKARFHPGAGAGPGPGTDRSVPHTNGLLSPQQAEDPGAPSPQRWFVTPANNRLDFAASAYDTATDFAGNAATLLSYAAAGVKALPLQAAGCTGRPLGYYADPSGWGARSPPQYCGTKSGSVLPCWPNSAAAAARMAGANPYLGEEAEGLAAERSPLPPGAAEDAKPKDLSDSSWIETPSSIKSIDSSDSGIYEQAKRRRISPADTPVSESSSPLKSEVLAQRDCEKNCAKDISGYYGFYSHS
B5: PPARGC1A, Q9UBK2 (protein)
chain: MAWDMCNQDSESVWSDIECAALVGEDQPLCPDLPELDLSELDVNDLDTDSFLGGLKWCSDQSEIISNQYNNEPSNIFEKIDEENEANLLAVLTETLDSLPVDEDGLPSFDALTDGDVTTDNEASPSSMPDGTPPPQEAEEPSLLKKLLLAPANTQLSYNECSGLSTQNHANHNHRIRTNPAIVKTENSWSNKAKSICQQQKPQRRPCSELLKYLTTNDDPPHTKPTENRNSSRDKCTSKKKSHTQSQSQHLQAKPTTLSLPLTPESPNDPKGSPFENKTIERTLSVELSGTAGLTPPTTPPHKANQDNPFRASPKLKSSCKTVVPPPSKKPRYSESSGTQGNNSTKKGPEQSELYAQLSKSSVLTGGHEERKTKRPSLRLFGDHDYCQSINSKTEILINISQELQDSRQLENKDVSSDWQGQICSSTDSDQCYLRETLEASKQVSPCSTRKQLQDQEIRAELNKHFGHPSQAVFDDEADKTGELRDSDFSNEQFSKLPMFINSGLAMDGLFDDSEDESDKLSYPWDGTQSYSLFNVSPSCSSFNSPCRDSVSPPKSLFSQRPQRMRSRSRSFSRHRSCSRSPYSRSRSRSPGSRSSSRSCYYYESSHYRHRTHRNSPLYVRSRSRSPYSRRPRYDSYEEYQHERLKREEYRREYEKRESERAKQRERQRQKAIEERRVIYVGKIRPDTTRTELRDRFEVFGEIEECTVNLRDDGDSYGFITYRYTCDAFAALENGYTLRRSNETDFELYFCGRKQFFKSNYADLDSNSDDFDPASTKSKYDSLDFDSLLKEAQRSLRR
B6: RXRB, P28702 (protein)
chain: MSWAARPPFLPQRHAAGQCGPVGVRKEMHCGVASRWRRRRPWLDPAAAAAAAVAGGEQQTPEPEPGEAGRDGMGDSGRDSRSPDSSSPNPLPQGVPPPSPPGPPLPPSTAPSLGGSGAPPPPPMPPPPLGSPFPVISSSMGSPGLPPPAPPGFSGPVSSPQINSTVSLPGGGSGPPEDVKPPVLGVRGLHCPPPPGGPGAGKRLCAICGDRSSGKHYGVYSCEGCKGFFKRTIRKDLTYSCRDNKDCTVDKRQRNRCQYCRYQKCLATGMKREAVQEERQRGKDKDGDGEGAGGAPEEMPVDRILEAELAVEQKSDQGVEGPGGTGGSGSSPNDPVTNICQAADKQLFTLVEWAKRIPHFSSLPLDDQVILLRAGWNELLIASFSHRSIDVRDGILLATGLHVHRNSAHSAGVGAIFDRVLTELVSKMRDMRMDKTELGCLRAIILFNPDAKGLSNPSEVEVLREKVYASLETYCKQKYPEQQGRFAKLLLRLPALRSIGLKCLEHLFFFKLIGDTPIDTFLMEMLEAPHQLA

The list shows a part of the results. Binding of human transcription factors and regulators to the viral nucleoprotein by AlphaScreen, crude cell-free proteins, amounts not normalised, one pass. Fold of the Venus control; higher = more signal. No active / inactive call. Single-pass screen; sequences are the whole Swiss-Prot entries looked up by name.

In this test the target is nucleoprotein N of Crimean-Congo hemorrhagic fever virus. The experiment in a line: AlphaScreen luminescence signal relative to Venus negative control (fold); higher = stronger binding to CCHFV N. How it is done:
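AlphaScreen binding of cell-free made, FLAG-GST-tagged human transcription factors and regulators (crude translation products) to biotinylated N protein; signal as fold of the FLAG-GST-Venus control. One pass.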
For B1, the AlphaScreen luminescence signal was 1.49.
Under B2 stands 1.4; under B3, 3.12.
Under B4 stands 2.19; under B5, 1.53.
Under B6 stands 4.

The record behind these values is the supplement of paper PMC12423691.
